Here are results for 25 molecules from patent US20200277339A1 (GENOME PROTECTION, published 2020).

Changes are numbered by the printed parent chain.

The labels stand for the following.
B1: CBLB502 mutant ME150 (ligand)
chain: MSGLRINSAKDDAAGQAIANRFTSNIKGLTQASRNANDGISIAQTTEGALNEINNNLQRVRELSVQATNGTNSDSDLKSIQDEIQQRLEEIDRVSNQTQFNGVKVLSQDNQMKIQVGASAAETITIDLQKIDVKSLGLDGFNVNSPGSTANPLASIDSALSKVDAVRSSLGAIQNRFDSAITNLGNTVTNLNSARSRIEDADYATEVSNMSKAQILQQAGTSVLAQANQVPQNVLSLLVPRGSHHHHHHG
B2: CBLB502 mutant ME104N (ligand)
chain: B1 chain with N69A, T71A, S73A, S75A, D76A, S79A, D82A, S119N, A120D, A121G
B3: CBLB502 mutant ME142 (ligand)
chain: B1 chain with Q111A, K113A, S119N, A120D, A121G
B4: CBLB502 mutant MIXN (ligand)
chain: B1 chain with N37A, F100A, Q111A, S119N, A120D, A121G, E122A, T123A
B5: CBLB502 mutant ME42 (ligand)
chain: B1 chain with D11A, A14G, S119N, A120D, A121G
B6: CBLB502 mutant ME132 (ligand)
chain: B1 chain with N101A, G102A, S119N, A120D, A121G
B7: CBLB502 mutant ME117 (ligand)
chain: B1 chain with Q86A, E89A, S119N, A120D, A121G
B8: CBLB502 mutant ME110 (ligand)
chain: B1 chain with S79A, D82A, S119N, A120D, A121G
B9: CBLB502 mutant ME104 (ligand)
chain: B1 chain with S73A, S75A, D76A, S119N, A120D, A121G
B10: CBLB502 mutant ME124 (ligand)
chain: B1 chain with R93A, N96A, Q97A, S119N, A120D, A121G
B11: CBLB502 mutant ME468 (ligand)
chain: B1 chain with S119N, A120D, A121G, Y203A, A204G, T205A, S208A
B12: CBLB502 mutant ME100 (ligand)
chain: B1 chain with N69A, T71A, S119N, A120D, A121G
B13: CBLB502-485CT (ligand)
chain: MSGLRINSAKDDAAGQAIANRFTSNIKGLTQASRNANDGISIAQTTEGALNEINNNLQRVRELSVQATNGTNSDSDLKSIQDEIQQRLEEIDRVSNQTQFNGVKVLSQDNQMKIQVGANDGETITIDLQKIDVKSLGLDGFNVNSPGSTANPLASIDSALSKVDAVRSSLGAIQNRFDSAITNLGNTVTNLNSARSRIEDADYATEVSNMSKAQILQQAGLVPRGSHHHHHHG
B14: CBLB502 variant CPM217 (ligand)
chain: MSTANPLASIDSALSKVDAVRSSLGAIQNRFDSAITNLGNTVTNLNSARSRIEDADYASPGSGLRINSAKDDAAGQAIANRFTSNIKGLTQASRNANDGISIAQTTEGALNEINNNLQRVRELSVQATNGTNSDSDLKSIQDEIQQRLEEIDRVSNQTQFNGVKVLSQDNQMKIQVGANDGETITIDLQKIDVKSLGLDGFNVNLVPRGSHHHHHHG
B15: CBLB502-S33 (ligand)
chain: MRGSHHHHHHGMASMTGGQQMGRDLYDLVPRGSAKDPSGLRINSAKDDAAGQAIANRFTSNIKGLTQASRNANDGISIAQTTEGALNEINNNLQRVRELSVQATNGTNSDSDLKSIQDEIQQRLEEIDRVSNQTQFNGVKVLSQDNQMKIQVGANDGETITIDLQKIDVKSLGLDGFNVNSPGISGGGGGILDSMGTLINEDAAAAKKSTANPLASIDSALSKVDAVRSSLGAIQNRFDSAITNLGNTVTNLNSARSRIEDADYATEVSNMSKAQILQQAGTSVLAQANQVPQNVLSLLR
B16: CBLB502 variant SY3CT (ligand)
chain: MSGLRINSAKDDAAGQAIANRFTSNIKGLTQASRNANDGISIAQTTEGALNEINNNLQRVRELSVQATNGTNSDSDLKSIQDEIQQRLEEIDRVSNQTQFNGVKVLSQDNQMKIQVGANDGETITIDLQKIDVKSLGLDGFNVNSPGSTANPLASIDSALSKVDAVRSSLGAIQNRFDSAITNLGNTVTNLNSARSRIEDADYALVPRGSHHHHHHG
B17: CBLB502 variant 45CT (ligand)
chain: MAGQAIANRFTSNIKGLTQASRNANDGISIAQTTEGALNEINNNLQRVRELSVQATNGTNSDSDLKSIQDEIQQRLEEIDRVSNQTQFNGVKVLSQDNQMKIQVGANDGETITIDLQKIDVKSLGLDGFNVNSPGISGGGGGILDSMGTLINEDAAAAKKSTANPLASIDSALSKVDAVRSSLGAIQNRFDSAITNLGNTVTNLNSARSRIEDADYATEVSNMSKAQILQQAGTSVLAQANQVPQNVLSLLVPRGSHHHHHHGMASMTGGQQMGRDLYDDDDKDP
B18: CBLB502 variant 33ML (ligand)
chain: B1 chain with S119N, A120D, A121G
B19: CBLB502 variant 33CT (ligand)
chain: MSGLRINSAKDDAAGQAIANRFTSNIKGLTQASRNANDGISIAQTTEGALNEINNNLQRVRELSVQATNGTNSDSDLKSIQDEIQQRLEEIDRVSNQTQFNGVKVLSQDNQMKIQVGANDGETITIDLQKIDVKSLGLDGFNVNSPGISGGGGGILDSMGTLINEDAAAAKKSTANPLASIDSALSKVDAVRSSLGAIQNRFDSAITNLGNTVTNLNSARSRIEDADYATEVSNMSKAQILQQAGTSVLAQANQVPQNVLSLLVPRGSHHHHHHG
B20: CBLB502 variant 470CT (ligand)
chain: MAQVINTNSLSLLTQNNLNKSQSSLSSAIERLSSGLRINSAKDDAAGQAIANRFTSNIKGLTQASRNANDGISIAQTTEGALNEINNNLQRVRELSVQATNGTNSDSDLKSIQDEIQQRLEEIDRVSNQTQFNGVKVLSQDNQMKIQVGANDGETITIDLQKIDVKSLGLDGFNVNSPGISGGGGGILDSMGTLINEDAAAAKKSTANPLASIDSALSKVDAVRSSLGAIQNRFDSAITNLGNTVTNLNSARSRIEDADYALVPRGSHHHHHHG
B21: CBLB502 variant 33-485 (ligand)
chain: MRGSHHHHHHGMASMTGGQQMGRDLYDLVPRGSAKDPSGLRINSAKDDAAGQAIANRFTSNIKGLTQASRNANDGISIAQTTEGALNEINNNLQRVRELSVQATNGTNSDSDLKSIQDEIQQRLEEIDRVSNQTQFNGVKVLSQDNQMKIQVGANDGETITIDLQKIDVKSLGLDGFNVNSPGISGGGGGILDSMGTLINEDAAAAKKSTANPLASIDSALSKVDAVRSSLGAIQNRFDSAITNLGNTVTNLNSARSRIEDADYATEVSNMSKAQILQQAG
B22: CBLB502 variant NGD1 (ligand)
chain: MSKGEELFTGVVPILVELDGDVNGHKFSVSGEGEGDATYGKLTLKFICTTGKLPVPWPTLVTTLTYGVQCFSRYPDHMKRHDFFKSAMPEGYVQERTISFKDDGNYKTRAEVKFEGDTLVNRIELKGIDFKEDGNILGHKLEYNYNSHNVYITADKQGLSGRIMSGLRINSAKDDAAGQAIANRFTSNIKGLTQASRNANDGISIAQTTEGALNEINNNLQRVRELSVQATNGTNSDSDLKSIQDEIQQRLEEIDRVSNQTQFNGVKVLSQDNQMKIQVGANDGETITIDLQKIDVKSLGLDGFNVNSPGSTANPLASIDSALSKVDAVRSSLGAIQNRFDSAITNLGNTVTNLNSARSRIEDADYALVPRGSHHHHHHG
B23: CBLB502 variant MF227N (ligand)
chain: MSGLRINSAKDDAAGQAIANRFTSNIKGLTQASRNANDGISIAQTTEGALNEINNNLQRVRELSVQATNGTNSDSDLKSIQDEIQQRLEEIDRVSNQTQFNGVKVLSQDNQMKIQVGANDGSPGSTANPLASIDSALSKVDAVRSSLGAIQNRFDSAITNLGNTVTNLNSARSRIEDADYATEVSNMSKAQILQQAGTSVLAQANQVPQNVLSLLVPRGSHHHHHHG
B24: CBLB502 variant 37CT (ligand)
chain: MINSAKDDAAGQAIANRFTSNIKGLTQASRNANDGISIAQTTEGALNEINNNLQRVRELSVQATNGTNSDSDLKSIQDEIQQRLEEIDRVSNQTQFNGVKVLSQDNQMKIQVGANDGETITIDLQKIDVKSLGLDGFNVNSPGISGGGGGILDSMGTLINEDAAAAKKSTANPLASIDSALSKVDAVRSSLGAIQNRFDSAITNLGNTVTNLNSARSRIEDADYATEVSNMSKAQILQQAGTSVLAQANQVPQNVLSLLVPRGSHHHHHHGMA
B25: CBLB502 variant N45 (ligand)
chain: MRGSHHHHHHGMASMTGGQQMGRDLYDLVPRGSAKDPAGQAIANRFTSNIKGLTQASRNANDGISIAQTTEGALNEINNNLQRVRELSVQATNGTNSDSDLKSIQDEIQQRLEEIDRVSNQTQFNGVKVLSQDNQMKIQVGANDGETITIDLQKIDVKSLGLDGFNVNSPGISGGGGGILDSMGTLINEDAAAAKKSTANPLASIDSALSKVDAVRSSLGAIQNRFDSAITNLGNTVTNLNSARSRIEDADYATEVSNMSKAQILQQAGTSVLAQANQVPQNVLSLLR

The first assay has as its target TLR5 of the cell-based reporter assays. The assay is described as follows: cell-based or functional assay.
With B1, the “Signaling EC50 Normalized by CBLB502” value is 0.5 fold vs CBLB502.

Consider B2, for which the “Signaling EC50 Normalized by CBLB502” value was found to be 0.9 fold vs CBLB502.

B3: the “Signaling EC50 Normalized by CBLB502” value turned out to be 0.3 fold vs CBLB502.

As for B4, the “Signaling EC50 Normalized by CBLB502” value was determined as 1.5 fold vs CBLB502.

With B5, the “Signaling EC50 Normalized by CBLB502” value came out at 1.3 fold vs CBLB502.

With B6, the “Signaling EC50 Normalized by CBLB502” value came to 0.94 fold vs CBLB502.

With B7, the “Signaling EC50 Normalized by CBLB502” value came out at 0.8 fold vs CBLB502.

Consider B8, for which the “Signaling EC50 Normalized by CBLB502” value worked out at 0.7 fold vs CBLB502.

B9: the “Signaling EC50 Normalized by CBLB502” value amounted to 1 fold vs CBLB502.

B10: the “Signaling EC50 Normalized by CBLB502” value was 0.9 fold vs CBLB502.

In the case of B11, the “Signaling EC50 Normalized by CBLB502” value was 0.7 fold vs CBLB502.

Consider B12, for which the “Signaling EC50 Normalized by CBLB502” value was 0.6 fold vs CBLB502.

The target is the same in the next assay. Nature of the assay: cell-based or functional assay. This is another data set of the same source.
Regarding B13, the “Relative EC50 vs 502, Signaling (LecZ)” value came out at 1.2 fold vs 502.

With B14, the “Relative EC50 vs 502, Signaling (LecZ)” value was 1110 fold vs 502.

For the molecule B15, the “Relative EC50 vs 502, Signaling (Luc)” value was 1.4 fold vs 502.

For B16, the “Relative EC50 vs 502, Signaling (LecZ)” value is 16 fold vs 502.

B17: the “Relative EC50 vs 502, Signaling (Luc)” value was determined as 3.5 fold vs 502.

Regarding B18, the “Relative EC50 vs 502, Signaling (LecZ)” value worked out at 1.3 fold vs 502 and the “Relative EC50 vs 502, Signaling (Luc)” value came out at 1.5 fold vs 502.

Take B19: the “Relative EC50 vs 502, Signaling (Luc)” value worked out at 2.3 fold vs 502.

Consider B20, for which the “Relative EC50 vs 502, Signaling (LecZ)” value was 38 fold vs 502 and the “Relative EC50 vs 502, Signaling (Luc)” value is 44 fold vs 502.

On to B21, for which the “Relative EC50 vs 502, Signaling (Luc)” value was 11 fold vs 502.

Take B22: the “Relative EC50 vs 502, Signaling (LecZ)” value came to 58 fold vs 502.

Regarding B23, the “Relative EC50 vs 502, Signaling (LecZ)” value was determined as 159 fold vs 502.

On to B24, for which the “Relative EC50 vs 502, Signaling (Luc)” value came out at 3.2 fold vs 502.

Turning to B25, the “Relative EC50 vs 502, Signaling (Luc)” value was found to be 3.6 fold vs 502.
